Measured values published in the supplement of paper PMC4967469.
By IC50 is meant the dose at which the fit gives 50% viability; a fit beyond the top or the lowest dose is shown as a bound at that dose. AUC, from the same fit, is the share of area under the viability curve across the 256-fold dose range; it is 1 without any effect and falls as sensitivity rises. For part of these data: An inferred top dose is not printed in the source and was worked back from the curve model.

Tests used:
Assay in all cases: Viability of human cancer cell lines after 72 h of drug (GDSC screen)
[1] = compound: CC[C@H](CO)Nc1nc(NCc2ccccc2)c2ncn(C(C)C)c2n1 [Roscovitine]; settings: top dose 16 µM; top dose inferred
Method: (§1)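 Human cancer cell lines in 384-well plates, medium with 10% serum, drug for 72 h over a 256-fold dose range (nine 2-fold or five 4-fold steps up to the top dose). Adherent lines were fixed and stained with the nucleic acid dye Syto60, suspension lines read with resazurin; signal relative to control wells, capped at 0 and 100%. One two-parameter sigmoid per drug and line, fitted in a mixed model over all curves with the slope shared within a line.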

[2] = compound: CO[C@@H]1[C@H](N(C)C(=O)c2ccccc2)C[C@H]2O[C@]1(C)n1c3ccccc3c3c4c(c5c6ccccc6n2c5c31)C(=O)NC4 [Midostaurin]; settings: top dose 0.512 µM; top dose inferred
Method: as §1

[3] = compound: COc1cc(Nc2c(C#N)cnc3cc(OCCCN4CCN(C)CC4)c(OC)cc23)c(Cl)cc1Cl [Bosutinib]; settings: top dose 2 µM
Method: as §1

[4] = compound: Cc1ccc(C(=O)Nc2cccc(C(F)(F)F)c2)cc1Nc1nc(-c2cccnc2)nc2c1cnn2C [NVP-BHG712]; settings: top dose 10.24 µM; top dose inferred
Method: as §1

[5] = compound: O=C(O)CNC(=O)c1c(O)c2ccccc2n(Cc2ccccc2)c1=O [IOX2]; settings: top dose 0.1 µM; top dose inferred
Method: as §1

[6] = compound: CO[C@@]12[C@H](COC(N)=O)C3=C(C(=O)C(C)=C(N)C3=O)N1C[C@@H]1N[C@@H]12 [Mitomycin C]; settings: top dose 16 µM
Method: as §1

| Cell Line | AUC [1] | IC50 [1] [µM] | AUC [2] | IC50 [2] [µM] | AUC [3] | IC50 [3] [µM] | AUC [4] | IC50 [4] [µM] | AUC [5] | IC50 [5] [µM] | AUC [6] | IC50 [6] [µM] |
| --- | --- | --- | --- | --- | --- | --- | --- | --- | --- | --- | --- | --- |
| KOPN-8 (B-cell leukaemia, suspension) | 0.948 | > 16 | 0.91 | > 0.512 | 0.929 | > 2 | 0.598 | 1.14 | 0.989 | > 0.1 |  |  |
| CAL-148 (breast, suspension) | 0.95 | > 16 | 0.93 | > 0.512 |  |  | 0.984 | > 10.2 |  |  | 0.106 | < 0.0625 |
| D-247MG (glioma, adherent) | 0.836 | > 16 | 0.773 | 0.276 | 0.98 | > 2 | 0.88 | > 10.2 | 0.974 | > 0.1 |  |  |
| HCC-33 (small cell lung carcinoma, adherent) | 0.957 | > 16 | 0.987 | > 0.512 |  |  | 0.972 | > 10.2 |  |  | 0.599 | 1.87 |
| ATN-1 (T-cell lymphoblastic leukaemia, suspension) | 0.936 | > 16 |  |  | 0.765 | 0.689 | 0.899 | > 10.2 | 0.986 | > 0.1 | 0.288 | 0.264 |
| KALS-1 (glioma, adherent) | 0.912 | > 16 | 0.889 | > 0.512 |  |  | 0.949 | > 10.2 | 0.975 | > 0.1 |  |  |
| SKM-1 (haematopoietic neoplasm, suspension) | 0.98 | > 16 |  |  |  |  |  |  | 0.982 | > 0.1 |  |  |
| BC-3 (B-cell lymphoma, suspension) | 0.9 | > 16 | 0.881 | 0.436 |  |  | 0.928 | > 10.2 |  |  | 0.267 | 0.237 |
| NCI-H211 (small cell lung carcinoma, adherent) | 0.977 | > 16 | 0.936 | > 0.512 | 0.972 | > 2 | 0.869 | 8.99 | 0.986 | > 0.1 |  |  |
| HAL-01 (lymphoblastic leukaemia, suspension) | 0.966 | > 16 |  |  | 0.846 | 1.21 | 0.694 | 2.09 | 0.983 | > 0.1 | 0.123 | 0.0777 |
| KARPAS-231 (B-cell leukaemia, suspension) | 0.943 | > 16 | 0.895 | 0.37 | 0.768 | 0.59 |  |  | 0.991 | > 0.1 |  |  |
| BC-1 (B-cell lymphoma, suspension) | 0.855 | 9.91 | 0.87 | 0.361 | 0.989 | > 2 | 0.862 | 6.73 | 0.98 | > 0.1 |  |  |
| NCI-H1975 (lung adenocarcinoma, adherent) | 0.904 | > 16 |  |  | 0.848 | 1.84 | 0.955 | > 10.2 | 0.978 | > 0.1 | 0.457 | 0.749 |
| OCUB-M (breast, adherent) | 0.965 | > 16 | 0.939 | > 0.512 | 0.974 | > 2 | 0.854 | 6.46 | 0.986 | > 0.1 |  |  |
| RPMI-8402 (T-cell lymphoblastic leukaemia, suspension) | 0.891 | 13.3 | 0.912 | > 0.512 | 0.931 | > 2 | 0.7 | 2.1 | 0.989 | > 0.1 |  |  |
| KP-N-YN (neuroblastoma, adherent) | 0.972 | > 16 | 0.96 | > 0.512 | 0.986 | > 2 | 0.969 | > 10.2 | 0.966 | > 0.1 |  |  |
| DEL (lymphoid neoplasm, suspension) | 0.95 | > 16 |  |  | 0.985 | > 2 | 0.99 | > 10.2 | 0.993 | > 0.1 |  |  |
| PSN1 (pancreas, adherent) | 0.908 | > 16 |  |  | 0.983 | > 2 | 0.704 | 2.16 | 0.991 | > 0.1 | 0.065 | < 0.0625 |
| GA-10 (Burkitt lymphoma, suspension) | 0.809 | 6.79 | 0.852 | 0.305 | 0.837 | 1.06 |  |  | 0.99 | > 0.1 |  |  |
| WM793B (melanoma, adherent) |  |  | 0.892 | > 0.512 | 0.924 | > 2 | 0.815 | 6.38 | 0.968 | > 0.1 | 0.183 | 0.0982 |
| EW-12 (Ewing sarcoma, suspension) | 0.975 | > 16 |  |  |  |  |  |  |  |  |  |  |
| MDA-MB-436 (breast, adherent) |  |  | 0.981 | > 0.512 | 0.947 | > 2 | 0.956 | > 10.2 | 0.981 | > 0.1 | 0.592 | 1.91 |
| NUGC-4 (stomach, adherent) |  |  | 0.847 | 0.379 | 0.898 | > 2 | 0.724 | 2.78 | 0.951 | > 0.1 | 0.245 | 0.184 |
| OVTOKO (ovary, adherent) |  |  | 0.734 | 0.182 | 0.696 | 0.519 | 0.933 | > 10.2 | 0.94 | > 0.1 | 0.245 | 0.147 |
| HCC1500 (breast, adherent) |  |  | 0.98 | > 0.512 | 0.953 | > 2 | 0.97 | > 10.2 | 0.987 | > 0.1 | 0.477 | 0.866 |
